Assay results as given in PubChem BioAssay AID588342 (National Center for Advancing Translational Sciences (NCATS), 2011).
The whole screen tested about 360,000 compounds, of which about 25,000 (6.9%) were called active. The inconclusive results got no clear call from the source; some entries with a clear call stand among them for comparison. The call rests on the fitted dose curve; in most records, active means well fitted inhibition curve with a large enough effect; inconclusive means small, poorly fitted or top-dose-only effect; inactive means flat fitted curve, though single readings scatter. Where the call is inconclusive, the potency comes from a doubtful curve fit.

molecular target: Luciferin 4-monooxygenase (Photinus pyralis) (UniProt P08659); test: qHTS profiling assay for firefly luciferase inhibitor/activator using purifed enzyme and Km concentrations of substrates (counterscreen for miR-21 project); conditions: purified FLuc, luminescence inhibition; activity change, negative = inhibition: at 57.5 µM (top of the series); further: nearly all actives have a fitted effect of over 55% in size;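 on activity change, negative = inhibition: plate controls were vehicle for no effect and reference inhibitor for full effect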
Chain of UniProt P08659 (P08659 whole entry, looked up): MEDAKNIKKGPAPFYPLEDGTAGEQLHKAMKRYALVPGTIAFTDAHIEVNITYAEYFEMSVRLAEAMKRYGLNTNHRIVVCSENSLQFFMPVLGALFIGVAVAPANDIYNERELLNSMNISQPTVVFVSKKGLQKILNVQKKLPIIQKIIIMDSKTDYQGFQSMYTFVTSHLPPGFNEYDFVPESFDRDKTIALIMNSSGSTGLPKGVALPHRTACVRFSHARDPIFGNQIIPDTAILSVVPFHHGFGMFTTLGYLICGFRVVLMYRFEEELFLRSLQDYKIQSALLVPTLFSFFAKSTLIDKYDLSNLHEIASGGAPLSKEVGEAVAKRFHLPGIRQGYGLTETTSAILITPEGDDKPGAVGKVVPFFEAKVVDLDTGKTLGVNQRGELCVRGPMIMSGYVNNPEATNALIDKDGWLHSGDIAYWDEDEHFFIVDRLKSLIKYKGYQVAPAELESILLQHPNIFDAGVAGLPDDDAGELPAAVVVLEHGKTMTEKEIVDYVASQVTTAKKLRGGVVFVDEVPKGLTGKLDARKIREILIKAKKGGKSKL
Procedure, shortened: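 Purified P. pyralis luciferase (10nM final) with 10uM D-luciferin and 10uM ATP (Km levels) in 50mM Tris acetate pH 7.5, 10mM Mg acetate, 0.01% Tween-20, 0.05% BSA; qHTS 6-point titration, ~60 µM downward; luminescence read.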
Potency means the concentration at half of the fitted maximal effect; tags describe the fitted curve by direction and shape.

SMILES	Potency	activity change, negative = inhibition
Cc1ccc(Oc2ncnc3sccc23)cc1	inconclusive: 5.36 µM [inhibitor, single point]	–
CC1(C)CCc2c([nH]c3ccccc3c2=O)O1	inconclusive: 16.9 µM [inhibitor, partial curve]	–
COc1ccc(CNC(=O)CSc2nc3ccc(N)cc3s2)cc1	inconclusive: 23.9 µM [inhibitor, partial curve, poor fit]	–
COc1cc2c(C)nc3c(cnn3-c3ccccc3)c2cc1OC	inconclusive: 23.9 µM [inhibitor, partial curve]	–
C=CCn1c(=O)c2c(nc3n2CCCN3CCc2ccc(OC)c(OC)c2)n(C)c1=O	–	inactive: -0.0337%
Cc1ccc(-c2csc(N3CCC(C(N)=O)CC3)n2)cc1	active: 10.7 µM	–
Cc1ccc(C(=O)/C=C/c2ccccc2)o1	active: 2.39 µM	–
COc1cc(/C=N/n2c(=S)[nH]nc(C)c2=O)cc([N+](=O)[O-])c1O	inconclusive: 30.1 µM [inhibitor, partial curve, poor fit]	–
CC(=O)c1c(C)oc2ccc(N(C(=O)Oc3ccccc3)S(=O)(=O)c3ccc(Cl)cc3)cc12	–	inactive: 3.99%
CS(=O)(=O)N1CCN(c2nc(-c3ccccc3)cs2)CC1	inconclusive: 23.9 µM [inhibitor, single point]	–
O=C(NCCc1ccc(F)cc1)c1ccc(NS(=O)(=O)c2ccc3[nH]c(=O)[nH]c3c2)cc1	–	inactive: -0.307%
O=C(/C=C/c1cccc(Cl)c1)NCCc1ccccc1	inconclusive: 26.9 µM [inhibitor, single point]	–
Cc1sc(-n2c(C)ccc2C)c(C#N)c1C	inconclusive: 37.9 µM [inhibitor, partial curve, poor fit]	–
CCOc1ccc(C(=O)NC(Cc2ccccc2)C(=O)OC)cc1 (stereo unspecified)	active: 4.78 µM	–
O=C(Nc1ccc(Cl)cc1)C(NS(=O)(=O)c1cccs1)c1ccccc1 (stereo unspecified)	inconclusive: 26.9 µM [inhibitor, partial curve, poor fit]	–
CS(=O)(=O)N1CCN(c2ccc(NC(=O)c3cc4ccccc4o3)cc2)CC1	–	inactive: -13.1%
COc1ccc(Nc2cc(Cl)ccc2C(=O)O)cn1	inconclusive: 37.9 µM [inhibitor, partial curve, poor fit]	–
C/C(CC(=O)N1CCN(C=O)CC1)=N\NC(=O)c1cc2ccccc2cc1O	active: 21.3 µM	–
COc1cccc(NC(=O)N2CCN(c3cccc(C)c3)C(C)C2)c1 (stereo unspecified)	inconclusive: 23.9 µM [inhibitor, single point]	–
Cc1ccc(NC(=O)CSc2nc(O)cc(=O)n2C)cc1	inconclusive: 21.3 µM [inhibitor, single point]	–
Cc1ccc(-n2c(Cc3ccccc3)nnc2SCc2nc(-c3cccs3)no2)cc1C	inconclusive: 12 µM [inhibitor, partial curve, poor fit]	–
Cc1[nH]c2ccccc2c1C(=O)/C=C/c1ccccc1	active: 4.78 µM	–
O=C(CCCCCn1c(=O)[nH]c2ccccc2c1=O)N1CCN(Cc2ccc3c(c2)OCO3)CC1	–	inactive: -0.479%

SMILES	Potency	activity change, negative = inhibition
CSc1cccc(NC(=O)CN(C)S(=O)(=O)c2ccccc2)c1	inconclusive: 26.9 µM [inhibitor, partial curve, poor fit]	–
Fc1cc(F)c2nc(N3CCCCC3)sc2c1	active: 15.1 µM	–
S=c1nc2c(n[nH]1)c1ccccc1n2CCc1ccccc1	inconclusive: 33.8 µM [inhibitor, partial curve, poor fit]	–
CCc1ccc(S(=O)(=O)c2nnn3c2nc(Nc2ccc(NC(C)=O)cc2)c2sccc23)cc1	–	inactive: -0.139%
Cc1nc(S/C(C(=O)O)=C2/C(=O)Nc3ccccc32)n[nH]1	inconclusive: 26.9 µM [inhibitor, single point]	–
CC(=O)c1c(C)oc2c1cc(NS(=O)(=O)c1ccc(Cl)c(C)c1)c1ccccc12	inconclusive: 12 µM [inhibitor, partial curve]	–
O=S(=O)(c1cccs1)N1CCN(Cc2nc3ccccc3s2)CC1	active: 16.9 µM	–
CN(C)C(=O)C1C2NC(=S)N(c3cccc(Cl)c3)C1(C)Oc1ccc(Cl)cc12 (stereo unspecified)	–	inactive: 0.468%
CCSc1cnc(-c2ccccc2)n1CC	inconclusive: 26.9 µM [inhibitor, partial curve, poor fit]	–
CC1CCN(c2nc3ccc(C(=O)NCc4ccccc4)cc3s2)CC1	active: 12 µM	–
COc1ccc(Cn2c(SCc3ccc(C(=O)NC(C)c4ccccc4)cc3)nc3cccnc32)cc1 (stereo unspecified)	inconclusive: 10.7 µM [inhibitor, partial curve, poor fit]	–
CC1Cc2ccccc2N1C(=O)CCn1c(=O)sc2ccccc21 (stereo unspecified)	inconclusive: 19 µM [inhibitor, partial curve]	–
CCOc1ccc(CSC(=N)N)cc1Cl	–	inactive: -1.96%
Cc1nnsc1SCCNC(=O)Nc1ccc(Cl)cc1	inconclusive: 9.53 µM [inhibitor, partial curve]	–
Cc1c(OC(C)C(=O)NCCCn2ccnc2)ccc2c3c(c(=O)oc12)CCC3 (stereo unspecified)	–	inactive: 1.06%
COc1ccc(NC(=O)NNC(=O)C(C)Oc2ccc(C(C)C)cc2)c(OC)c1 (stereo unspecified)	inconclusive: 23.9 µM [inhibitor, partial curve]	–
Cc1nnc(NC(=O)c2ccccc2)s1	inconclusive: 37.9 µM [inhibitor, partial curve, poor fit]	–
COc1ccc(CNC(=O)c2ccc3nc(-c4ccc(F)cc4)c(-c4ccc(F)cc4)nc3c2)cc1	–	inactive: 4.97%
CCn1nnnc1SCC(=O)c1ccc(C)cc1	active: 15.1 µM	–
COc1ccc(Cl)cc1NC(=S)NNC(=O)C1(C)CC1(Cl)Cl (stereo unspecified)	inconclusive: 23.9 µM [inhibitor, single point]	–
COc1cc(/C=C2\SC(=O)NC2=O)ccc1Oc1ccc([N+](=O)[O-])cc1[N+](=O)[O-]	inconclusive: 30.1 µM [inhibitor, single point]	–
C/C(CC(=O)Nc1cc(C)ccn1)=N\NC(=O)C(=O)Nc1cccc(C)c1	inconclusive: 21.3 µM [inhibitor, single point]	–
CCN(CC1CCCN(CCc2cccc(OC)c2)C1)C(=O)c1ccoc1C (stereo unspecified)	–	inactive: 0.558%
